Assay results from the supplement of paper PMC10126150.
Sequences with one replicate were seen in a single cluster, so their values are uncertain.

Test system: ATP
Assay: switch fluorescence ratio, 500 uM ATP over buffer (Cy3 cluster intensity, sum of 5 cycles each) (fold (ratio)); higher = stronger signal-on switching upon ATP binding; sequences stand for … in TCGTCGGCAGCGTCAGATGTGTATAAGAGACAGTTTTTTTTTTTTTTTTTTTTTTTTT…TC
Conditions: aptamer strand: ATP DNA aptamer (quencher-CACCTGGGGGAGTATTGCGGAGGAAGG + anchor), 100 nM annealed; ATP concentration: 500 uM; one replicate
In short: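 The quencher-labelled ATP aptamer, at 100 nM, was annealed to Cy3-labelled switching-strand clusters on a modified Illumina MiSeq flow-cell. The clusters were imaged in selection buffer, then after 15 min with 500 uM ATP at 22 °C, and this buffer/ATP cycle ran five times with NaOH stripping and re-annealing between runs. Per-cluster fluorescence ratios, summed target-cycle over summed buffer-cycle Cy3 intensity, were averaged per switch-domain sequence. Clusters outside 100-1000 RFU were excluded.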
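Further: ATP exposure 15 min at 22 °C before imaging.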

Sequence	switch fluorescence ratio
GTCATCGCTT	0.967
GTCCAAATCG	1.16
GTCCAATAGG	0.985
GTCCACCGCT	2.48
GTCCCCGAAT	1
GTCCCGGGGT	1.75
GTCCCTAGAA	0.987
GTCCGAGAGT	1.04
GTCCGAGGGG	1.04
GTCCGCGTGT	1.12
GTCCGGTCGG	0.987
GTCCGGTGGG	0.994
GTCCGTCTT	0.968
GTCCGTTCAA	1.24
GTCCTATTTT	0.982
GTCCTGGTCT	1.06
GTCGAAACGG	0.99
GTCGAATGAC	1
GTCGACACAA	1.01
GTCGAGGCAG	1.03
GTCGATCAAC	1.04
GTCGATGACA	1
GTCGATGCTT	1
GTCGCAGGTT	1.01
GTCGCTGTTT	0.976
GTCGGATGAT	0.989

Sequence	switch fluorescence ratio
GTCGGCGGGA	1.03
GTCGGGATAG	1.14
GTCGGGGATG	0.99
GTCGGGGGA	0.913
GTCGGTACGT	0.992
GTCGGTCGGC	0.911
GTCGTAATAG	1.52
GTCGTACAGC	1.05
GTCGTGTCGG	1.02
GTCTAAAAAA	1.1
GTCTAAACT	0.996
GTCTAAAGCT	1
GTCTACACTG	1.06
GTCTAGACCA	1.01
GTCTAGAGTG	0.995
GTCTATGATT	0.979
GTCTCCAGTT	0.992
GTCTCTCCCA	1.11
GTCTCTTCGG	0.986
GTCTGACGTA	1.07
GTCTGAGAGG	0.98
GTCTGAGGTC	0.971
GTCTGCAGGG	1
GTCTGCGCAA	2.94
GTCTGGAAAA	0.949
GTCTGGAGTT	1.04

Sequence	switch fluorescence ratio
GTCTGGCAAT	1.05
GTCTGTCGTA	0.935
GTCTTAATAC	1.42
GTCTTCGCGA	1.32
GTCTTGGCCG	0.978
GTCTTTCCAA	1
GTCTTTTG	1
GTGAACATCG	1.02
GTGAACGAAT	1
GTGAAGCGGT	0.97
GTGAAGTAGT	1.02
GTGAATGGTA	0.994
GTGAATGTGG	0.961
GTGACAATCG	1.04
GTGACAGCGG	0.998
GTGACAGGCG	1
GTGACGACAA	1.2
GTGACGCTGC	1.75
GTGAGAGGG	1
GTGAGATGCT	0.989
GTGAGCGGTG	1
GTGAGCTCAG	1.02
GTGAGCTGCG	0.893
GTGAGCTGTT	1.02
GTGAGGTCGA	0.953
GTGAGTGCGC	0.972

Sequence	switch fluorescence ratio
GTGATAACGC	0.998
GTGATAGCCG	0.983
GTGATATAGT	0.96
GTGATCGTGC	0.969
GTGATGGCTC	0.988
GTGATGGGCA	1.39
GTGATTAGAG	1.01
GTGCAAGATG	0.997
GTGCACCTGT	1.03
GTGCCAGCGA	0.994
GTGCCAGGGG	0.947
GTGCCTTAGT	0.997
GTGCGAAGGG	1.06
GTGCGGGACC	1.04
GTGCGGGGCC	0.995
GTGCGTCTAT	1.01
GTGCGTCTGG	1.02
GTGCGTTGCT	0.983
GTGCTACGGT	0.998
GTGCTAGAGC	1.02
GTGCTGGGTT	1.03
GTGCTTGATA	1.03
GTGCTTTGTG	0.959
GTGCTTTTTA	1.1
GTGGAAACAT	1.07
GTGGAAAGAC	1.13

Sequence	switch fluorescence ratio
GTGGACCTTT	0.979
GTGGACTGAG	0.945
GTGGAGCCTG	1.03
GTGGATCCTC	1.02
GTGGCAAATG	1
GTGGCAGAAT	0.987
GTGGCAGCAC	1.02
GTGGCCATTG	0.963
GTGGCCTTAC	1.16
GTGGCTAGGT	1.03
GTGGGACCAA	0.965
GTGGGACCGC	0.95
GTGGGAGCAA	1.03
GTGGGAGCAC	1.02
GTGGGATCAC	1.03
GTGGGGGAG	1
GTGGGTCGT	1.04
GTGGGTTTAC	1.02
GTGGGTTTTG	0.987
GTGGTACCTG	1.02
GTGGTATATC	0.965
GTGGTCAGGT	0.982
GTGGTCATC	1.03
GTGGTCGACG	1.04
GTGGTCGG	1.03
GTGGTCGGAT	0.99

Sequence	switch fluorescence ratio
GTGTAAGCG	1.01
GTGTACTTGC	0.987
GTGTAGAACT	1.02
GTGTAGAGCG	1.09
GTGTAGGCAG	1.02
GTGTATGTCA	0.992
GTGTCAAGGA	0.978
GTGTCAAGGT	0.953
GTGTCCCCGG	1.03
GTGTCGATG	0.999
GTGTCGGAGC	1.06
GTGTCTGCTA	0.949
GTGTCTTAGA	0.953
GTGTCTTCCA	1.03
GTGTGAAACT	1.05
GTGTGAACAA	0.999
GTGTGAGTCG	1.09
GTGTGATAT	1.02
GTGTGCGATC	1.01
GTGTGCTAGG	0.97
GTGTGGGCTT	0.973
GTGTGGTCC	1.06
GTGTGGTGTC	1.06
GTGTGGTTAA	1
GTGTGTAAG	0.95
GTGTGTATC	1.03

Sequence	switch fluorescence ratio
GTGTGTATGC	0.98
GTGTGTTCAG	0.978
GTGTGTTCCC	0.936
GTGTTAACAC	1.14
GTGTTAAGAT	1
GTGTTAGTCT	1.06
GTGTTATACC	1.02
GTGTTCCGAG	1.05
GTGTTCCGTC	1
GTGTTGACTA	1.11
GTGTTGGAAG	0.963
GTGTTTAGAA	0.99
GTGTTTTT	0.99
GTTAACTTGC	1.08
GTTAATTGCT	0.973
GTTACCGTTC	1.06
GTTACGCATG	1.01
GTTACGCGCT	1
GTTACGGATC	1.02
GTTACGTATA	1.15
GTTAGAGAAA	0.986
GTTAGATTAA	1
GTTAGGCTCC	1.02
GTTAGTATTT	0.952
GTTAGTGCCC	0.983
GTTATAGCAG	0.966

Sequence	switch fluorescence ratio
GTTATATATA	0.948
GTTATATGAT	1.03
GTTATCGATG	1.01
GTTATCTAGA	1
GTTATCTCCT	1.06
GTTATGGAGC	0.976
GTTATGTGTT	0.981
GTTATTGCC	0.987
GTTATTGTTA	0.996
GTTCAAACAC	0.995
GTTCACCCGC	1.38
GTTCACCTC	0.979
GTTCAGTTT	0.977
GTTCATAGCA	1.02
GTTCATAGTA	1.04
GTTCATGCTT	1.01
GTTCCCTGAT	1.17
GTTCCTCTAG	1.19
GTTCCTTATA	0.972
